Experimental findings from patent publication EP3048116A1 (International-Drug-Development-Biotech, dated 2016) are described below.

The experiment deals with T1, Purified human sDR5 (human, UniProt O14763 56-182, limits assumed).
T1 construct: Analyte in the Biacore assay; only called 'purified human sDR5'
As to the kind of experiment: SPR (Biacore), MAb captured on immobilised GAH, sDR5 injected at 40 nM to 2.5 nM.

B1: Hz033-Mut0 (antibody, human IgG1, kappa)
heavy: EVQLQQSGAEVVKPGASVKLSCKASGFNIKDTFIHWVKQAPGQGLEWIGRIDPANGNTKYDPKFQGKATITTDTSSNTAYMELSSLRSEDTAVYYCVRGLYTYYFDYWGQGTLVTVSS[sequence of human IgG1 constant region omitted]
light: EIVMTQSPATLSVSPGERATLSCRASQSISNNLHWYQQKPGQAPRLLIKFASQSITGIPARFSGSGSGTEFTLTISSLQSEDFAVYYCQQGNSWPYTFGQGTKLEIKRTVAAPSVFIFPPSDEQLKSGTASVVCLLNNFYPREAKVQWKVDNALQSGNSQESVTEQDSKDSTYSLSSTLTLSKADYEKHKVYACEVTHQGLSSPVTKSFNRGEC
notes: produced in CHO cells; also called Hz033 native MAb; humanized MAb anti-DR5 Hz033
As usually defined, the Kd is the free concentration of one partner at which half of the binding sites on the other are occupied at equilibrium, for simple one-to-one binding. As to B1, the Kd came out at 0.276 nM.
